PubChem BioAssay AID1645882 (National Center for Advancing Translational Sciences (NCATS), 2021)
The whole screen tested about 16,000 compounds, of which about 120 (0.75%) were called active. Roughly 4% stayed inconclusive and do not appear here. Calls follow the shape of the dose curve; as a rule, active = well fitted inhibition curve with a large enough effect; inconclusive = small, poorly fitted or top-dose-only effect; inactive = no such curve, though single readings can be large or run the other way. The list shows a part of the results.

What follows are compounds tested against Rap guanine nucleotide exchange factor 3 (Homo sapiens) (UniProt O95398) (assay: Validation qHTS for antagonist of cAMP-regulated guanine nucleotide exchange factor 3 (EPAC1)). Conditions: EPAC1 Rap1B-BODIPY-GDP exchange, fluorescence; series mostly up to 150 µM; activity change, negative = inhibition: at the top concentration.
Chain of UniProt O95398 (O95398 whole entry, looked up): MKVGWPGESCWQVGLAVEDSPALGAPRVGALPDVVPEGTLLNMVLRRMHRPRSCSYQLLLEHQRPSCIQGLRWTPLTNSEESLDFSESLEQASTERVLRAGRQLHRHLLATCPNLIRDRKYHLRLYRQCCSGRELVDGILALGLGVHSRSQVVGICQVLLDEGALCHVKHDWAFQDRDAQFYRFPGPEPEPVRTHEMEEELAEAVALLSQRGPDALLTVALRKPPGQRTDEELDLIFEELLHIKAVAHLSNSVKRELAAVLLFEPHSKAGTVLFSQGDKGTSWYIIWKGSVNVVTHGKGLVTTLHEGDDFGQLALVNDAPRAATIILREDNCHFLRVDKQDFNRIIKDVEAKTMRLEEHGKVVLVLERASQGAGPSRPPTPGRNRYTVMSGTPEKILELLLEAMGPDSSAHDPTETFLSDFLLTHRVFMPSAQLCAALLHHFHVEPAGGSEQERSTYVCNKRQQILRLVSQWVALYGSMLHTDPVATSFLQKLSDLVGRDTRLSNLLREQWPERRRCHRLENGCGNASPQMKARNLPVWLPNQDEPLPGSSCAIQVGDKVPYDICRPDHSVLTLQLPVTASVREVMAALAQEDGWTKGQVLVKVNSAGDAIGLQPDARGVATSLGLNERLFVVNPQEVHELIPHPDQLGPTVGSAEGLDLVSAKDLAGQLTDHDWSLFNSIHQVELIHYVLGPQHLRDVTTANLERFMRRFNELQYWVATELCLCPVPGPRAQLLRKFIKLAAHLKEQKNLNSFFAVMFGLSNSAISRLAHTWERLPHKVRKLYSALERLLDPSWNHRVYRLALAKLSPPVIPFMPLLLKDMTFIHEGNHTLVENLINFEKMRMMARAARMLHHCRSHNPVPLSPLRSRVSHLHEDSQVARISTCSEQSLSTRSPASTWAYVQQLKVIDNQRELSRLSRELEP
In short: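 Nucleotide exchange followed as fluorescence loss when BODIPY-GDP leaves Rap1B (480 nm excitation, 540 nm emission), read at 5 min intervals over 30 min. Reaction: 100 nM EPAC1, 250 nM RAP1B-BODIPY-GDP, 50 uM GDP; ATA and DMSO define normalization.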
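Also: plate controls were DMSO for no effect and ATA control for full effect; nearly all actives have a fitted effect of over 75% in size.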

| Compound | activity change, negative = inhibition |
| --- | --- |
| COc1ccc2c(c1)CCC1C2CC[C@@]2(C)C1CC[C@@H]2NCCCCCCN1C(=O)CCC1=O (stereo partly specified) | inactive: 16.9% [at 75.8 µM] |
| Nc1ccc(/C=C/c2ccc3ncccc3c2)cc1 | inactive: 17% |
| C[C@@H]1CN(Cc2ccc3c(c2)CN(C(=O)c2ccc(Oc4ccccc4)o2)CCO3)C[C@H](C)O1 | inactive: 9.99% |
| O=C(O)C[C@H]1c2ccc(C(F)(F)F)cc2S(=O)(=O)N1Cc1ccccc1 | inactive: -16.3% |
| Cc1ccc(C(C)(C)c2ccc(C)cc2)cc1 | inactive: 16.1% |
| COc1ccc(Oc2ncc3nc(-c4ccccc4)c(=O)n(Cc4cccs4)c3n2)cc1 | inactive: 12.3% |
| COc1ccc(-n2c(=O)c(-c3cc(F)cc(F)c3)nc3cnc(N(C)C)nc32)cc1 | inactive: 56.3% |
| COc1cc(C(=O)OCCCN2CCCN(CCCOC(=O)c3cc(OC)c(OC)c(OC)c3)CC2)cc(OC)c1OC | inactive |
| COC(=O)C1=C(C)NC(C)=C([N+](=O)[O-])C1c1ccccc1C(F)(F)F (stereo unspecified) | inactive |
| CC(C)c1c(C(=O)N(C)Cc2cccc3ncccc23)cnn1-c1nccc(-c2ccco2)n1 | inactive: 9.13% |
| Nc1c(CC(=O)O)cccc1C(=O)c1ccccc1 | inactive |
| O=Cc1ccccc1C=O | inactive: -2.01% |
| O=C(NCc1cccnc1)[C@@H]1CC=C[C@@H]2CCN(C3CCCCC3)C(=O)[C@@H]21 | inactive: 15.2% |
| Cc1nc2cnc(N(C)C)nc2n(Cc2cccs2)c1=O | inactive: 11.5% |
| COc1cc(=O)n2c(c1C(=O)N(C)Cc1nonc1C)CCN(Cc1cc(F)ccc1F)CC2 | inactive: 10.1% |
| CN(C)CCCN1c2ccccc2Sc2ccc(C(F)(F)F)cc21 | inactive |
| O=c1cnc2cnc(N3CCOCC3)nc2n1Cc1cccs1 | inactive: 16.1% |
| CC1=C(CCC(=O)O)c2cc3nc(cc4[nH]c(cc5[nH]c(cc1n2)c(C)c5C(C)O)c(C)c4C(C)O)C(C)=C3CCC(=O)O (stereo unspecified) | inactive: -9.54% |
| CCCOC(=O)c1ccccc1 | inactive: 7.24% |
| COc1cc(=O)n2c(c1C(=O)NCc1ccco1)CCN(C(=O)c1ccc(C)c(C)c1)CC2 | inactive: 15.5% |
| Cc1noc(C)c1-c1ccc2ncnc(NC3CC3)c2c1 | inactive: 31.1% |
| COc1ccc([C@@H]2CC(=O)c3c(O)cc(O)cc3O2)cc1O | inactive: 14.1% |

| Compound | activity change, negative = inhibition |
| --- | --- |
| CC/C=C\C[C@H]1C(=O)CC[C@@H]1CC(=O)O | inactive: 7.6% |
| Oc1ccccc1 | inactive: 24.5% |
| CCCCOCCOCCOCc1cc2c(cc1CCC)OCO2 | inactive |
| CCN(CC)CCOC(=O)C1(C2CCCCC2)CCCCC1 | inactive |
| COc1ccc(Oc2ncc3nc(-c4ccc(Cl)cc4)c(=O)n(C4CC4)c3n2)cc1 | inactive: 11.9% |
| O=C1CC(c2ccccc2O)Oc2ccc(O)cc21 (stereo unspecified) | inactive: -13.5% |
| C#C[C@]1(O)CC[C@H]2[C@@H]3CCC4=C/C(=N/O)CC[C@@H]4[C@H]3CC[C@@]21CC | inactive: 1.07% |
| CN(C)Cc1ccccc1-c1ccc2ncnc(NC3CCNCC3)c2c1 | inactive: 17.1% |
| CC(C)CN1CC[C@@]2(CCCN(C(=O)c3cccc(F)c3)C2)C1 | inactive: 0.054% |
| COCCN(C)C(=O)c1cnn(-c2ncc3c(n2)-c2ccccc2CC3)c1C | inactive: 13.3% |
| CCCCC(O)c1ccccc1 (stereo unspecified) | inactive: 21.4% |
| CC(=O)OC1CCC2(C)C3CCC4(C)C(CC5CCCCC54C(C)=O)C3CC(=O)[C@@]2(O)C1 (stereo partly specified) | inactive: -8.8% |
| COc1cccc(-c2nc(NCCc3c[nH]c4ccc(OC)cc34)c3ccccc3n2)c1 | inactive: -6.68% |
| CCC(=O)OCC(=O)[C@@]1(OC(=O)CC)[C@@H](C)C[C@@H]2[C@H]3CCC4=CC(=O)C=C[C@]4(C)[C@@]3(F)[C@@H](O)C[C@@]21C | inactive: 9.3% |
| C[N+]1(C)CCC(OC(=O)C(c2ccccc2)c2ccccc2)CC1 | inactive |
| Oc1cc(O)c2c(c1)O[C@H](c1ccc(O)c(O)c1)[C@@H](O)C2 | inactive |
| Cc1[nH]ccc2c1[nH]c1cc(=O)ccc12 | inactive |
| O=Cc1c2[nH]c3ccccc3c2cc2[nH]c3ccccc3c12 | inactive |
| CC(=O)Oc1ccccc1C(=O)Nc1ncc([N+](=O)[O-])s1 | inactive: 6.37% |
| Cc1cc[n+](CCC2CCCCC2)cc1 | inactive: 12.1% |
| COc1ncc2nc(-c3cn(C)c4ccccc34)c(=O)n(Cc3ccc(F)cc3)c2n1 | inactive: 12.8% |
| CC1(C)CCC2(C(=O)O)CC[C@]3(C)C(=CCC4[C@]5(C)CCC(O)C(C)(C)C5C(O)C[C@]43C)C2C1 (stereo partly specified) | inactive: 17.9% |

| Compound | activity change, negative = inhibition |
| --- | --- |
| COc1cc(-c2cnc3ccccc3c2)cc2c1OCCN(S(=O)(=O)C[C@]13CC[C@H](CC1=O)C3(C)C)C2 | inactive: -1.83% |
| CN1CCN(c2ncncc2-c2ccccc2Cl)CC1 | inactive: 12.6% |
| O=C(O)C[C@H]1c2cc(C(F)(F)F)ccc2S(=O)(=O)N1C1CCCC1 | inactive: 15.6% |
| Cc1cccc(C)c1Nc1ncccc1C(=O)O | inactive: 6.32% |
| COc1ccccc1C1CN(CC(=O)N2CCC(C(O)c3ccccn3)CC2)Cc2ccccc2O1 (stereo unspecified) | inactive: -1.98% |
| COc1ccc(CNC(=O)C2CCCN2c2nc(C)c3ccccc3n2)cc1 (stereo unspecified) | inactive: -5.85% |
| COc1ccc(NC(=O)N2CCC3(CC2)CCN(C(=O)c2ccncc2)CC3)cc1 | inactive: 17% |
| COc1c2occc2cc2ccc(=O)oc12 | inactive |
| CC1=CC[C@@]2(CO)COC(c3ccccc3O)C1C2 (stereo partly specified) | inactive: -6.49% |
| CC(C)CN1CCC2(CC1)CCN(C(=O)c1ccncc1)CC2 | inactive: 11.6% |
| O=C(NN1CCCC1)NS(=O)(=O)c1ccc(Cl)cc1 | inactive: 33.3% |
| CCCCC/C=C\C/C=C\CCCCCCCC(=O)O[C@@H](CO)COC(=O)CCCCCCCCCCCCCCCCC | inactive: -11.4% [at 15.3 µM] |
| NCc1ccccc1CC(=O)N[C@@H]1C(=O)N2C(C(=O)O)=C(CSc3nnnn3CC(=O)O)CS[C@H]12 | inactive: 27.1% [at 75.8 µM] |
| Cc1sc2ccccc2[n+]1CCC[n+]1c(C)sc2ccccc21 | inactive: -14.4% |
| CCc1ccccc1OC[C@@H](O)CN[C@H]1CCCc2ccccc21 | inactive: -18.6% |
| c1ncc(-c2ccc3c(c2)OCO3)c(NCCc2cnc[nH]2)n1 | inactive: -7.1% |
| NC(=NC1C2CC3CC(C2)CC1C3)Nc1ccc(I)cc1 (stereo unspecified) | inactive |
| Cc1ncc2c(c1CNS(=O)(=O)N(C)C)CCN(C(=O)/C=C/c1cccc(F)c1)C2 | inactive: 10.3% |
| CN1CCN(C2=Nc3ccccc3Oc3ccc(Cl)cc32)CC1 | inactive |
| Cc1c(Cn2ccnc2)c2ccccc2n1CCC(=O)O | inactive: 9.6% |
| O=c1c(-c2ccc(Cl)cc2)nc2cnc(Oc3ccccc3)nc2n1C1CC1 | inactive: 8.57% |
| O=C1CCN(Cc2ccccc2)CCN1[C@H](CO)c1ccccc1 | inactive |
